Assay results taken from PMC9911399, “Two distinct binding modes provide the RNA-binding protein RbFox with extraordinary sequence specificity”.
Substitutions are numbered along the chain they refer to; changes in the protein carry UniProt numbers. Some of the results follow.

T1: RBFOX1 RRM (Homo sapiens, UniProt Q9NWB1 109-208)
T1 sequence: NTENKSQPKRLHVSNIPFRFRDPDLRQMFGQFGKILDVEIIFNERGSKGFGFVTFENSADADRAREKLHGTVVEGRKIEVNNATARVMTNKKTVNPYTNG

B1: UGGCCGC (DNA:RNA)
RNA: GGGAGACCGGAAUUCAGAUUGUCCUGGCCGCUUAAAUCCCGUCGUAGCCACCA
DNA 1: CAATCTGAATTCCGGTCTCCC
DNA 2: TGGTGGCTACGACGGGATT
B2: AGGGCUC (DNA:RNA)
RNA: B1 RNA with U25A, C28G, G30U
DNA 1: CAATCTGAATTCCGGTCTCCC
DNA 2: TGGTGGCTACGACGGGATT
B3: CUCCUUU (DNA:RNA)
RNA: B1 RNA with U25C, G26U, G27C, C29U, G30U, C31U
DNA 1: CAATCTGAATTCCGGTCTCCC
DNA 2: TGGTGGCTACGACGGGATT
B4: UGGAAGU (DNA:RNA)
RNA: B1 RNA with C28A, C29A, C31U
DNA 1: CAATCTGAATTCCGGTCTCCC
DNA 2: TGGTGGCTACGACGGGATT
B5: UGUAUGG (DNA:RNA)
RNA: B1 RNA with G27U, C28A, C29U, C31G
DNA 1: CAATCTGAATTCCGGTCTCCC
DNA 2: TGGTGGCTACGACGGGATT
B6: CGUCGUG (DNA:RNA)
RNA: B1 RNA with U25C, G27U, C29G, G30U, C31G
DNA 1: CAATCTGAATTCCGGTCTCCC
DNA 2: TGGTGGCTACGACGGGATT
B7: GAUCGAG (DNA:RNA)
RNA: B1 RNA with U25G, G26A, G27U, C29G, G30A, C31G
DNA 1: CAATCTGAATTCCGGTCTCCC
DNA 2: TGGTGGCTACGACGGGATT
B8: AGUUUAA (DNA:RNA)
RNA: B1 RNA with U25A, G27U, C28U, C29U, G30A, C31A
DNA 1: CAATCTGAATTCCGGTCTCCC
DNA 2: TGGTGGCTACGACGGGATT
B9: CCGGAAU (DNA:RNA)
RNA: B1 RNA with U25C, G26C, C28G, C29A, G30A, C31U
DNA 1: CAATCTGAATTCCGGTCTCCC
DNA 2: TGGTGGCTACGACGGGATT
B10: AAAUUUA (DNA:RNA)
RNA: GGGAGACCGGAAUUCAGAUUGUCCAAAUUUAUUAAAUCCCGUCGUAGCCACCA
DNA 1: CAATCTGAATTCCGGTCTCCC
DNA 2: TGGTGGCTACGACGGGATT
B11: UUUUUCA (DNA:RNA)
RNA: B10 RNA with A25U, A26U, A27U, U30C
DNA 1: CAATCTGAATTCCGGTCTCCC
DNA 2: TGGTGGCTACGACGGGATT
B12: AAAGUAA (DNA:RNA)
RNA: B10 RNA with U28G, U30A
DNA 1: CAATCTGAATTCCGGTCTCCC
DNA 2: TGGTGGCTACGACGGGATT
B13: GAAUCUA (DNA:RNA)
RNA: B10 RNA with A25G, U29C
DNA 1: CAATCTGAATTCCGGTCTCCC
DNA 2: TGGTGGCTACGACGGGATT
B14: CUAAGGG (DNA:RNA)
RNA: B10 RNA with A25C, A26U, U28A, U29G, U30G, A31G
DNA 1: CAATCTGAATTCCGGTCTCCC
DNA 2: TGGTGGCTACGACGGGATT
B15: AACGAGG (DNA:RNA)
RNA: B10 RNA with A27C, U28G, U29A, U30G, A31G
DNA 1: CAATCTGAATTCCGGTCTCCC
DNA 2: TGGTGGCTACGACGGGATT
B16: GCCAAAA (DNA:RNA)
RNA: B10 RNA with A25G, A26C, A27C, U28A, U29A, U30A
DNA 1: CAATCTGAATTCCGGTCTCCC
DNA 2: TGGTGGCTACGACGGGATT
B17: GUAAGAC (DNA:RNA)
RNA: B10 RNA with A25G, A26U, U28A, U29G, U30A, A31C
DNA 1: CAATCTGAATTCCGGTCTCCC
DNA 2: TGGTGGCTACGACGGGATT
B18: UGGAAGG (DNA:RNA)
RNA: B1 RNA with C28A, C29A, C31G
DNA 1: CAATCTGAATTCCGGTCTCCC
DNA 2: TGGTGGCTACGACGGGATT
B19: CUCGACU (DNA:RNA)
RNA: GGGAGACCGGAAUUCAGAUUGUCCCUCGACUUUAAAUCCCGUCGUAGCCACCA
DNA 1: CAATCTGAATTCCGGTCTCCC
DNA 2: TGGTGGCTACGACGGGATT
B20: GUAAUAG (DNA:RNA)
RNA: B10 RNA with A25G, A26U, U28A, U30A, A31G
DNA 1: CAATCTGAATTCCGGTCTCCC
DNA 2: TGGTGGCTACGACGGGATT
B21: GAGGUCC (DNA:RNA)
RNA: B10 RNA with A25G, A27G, U28G, U30C, A31C
DNA 1: CAATCTGAATTCCGGTCTCCC
DNA 2: TGGTGGCTACGACGGGATT
B22: GGCGACG (DNA:RNA)
RNA: B19 RNA with C25G, U26G, U31G
DNA 1: CAATCTGAATTCCGGTCTCCC
DNA 2: TGGTGGCTACGACGGGATT
B23: GGCACCU (DNA:RNA)
RNA: B19 RNA with C25G, U26G, G28A, A29C
DNA 1: CAATCTGAATTCCGGTCTCCC
DNA 2: TGGTGGCTACGACGGGATT
B24: UUCCCAC (DNA:RNA)
RNA: B1 RNA with G26U, G27C, G30A
DNA 1: CAATCTGAATTCCGGTCTCCC
DNA 2: TGGTGGCTACGACGGGATT
B25: GACUCUG (DNA:RNA)
RNA: B10 RNA with A25G, A27C, U29C, A31G
DNA 1: CAATCTGAATTCCGGTCTCCC
DNA 2: TGGTGGCTACGACGGGATT
B26: CGCGCAA (DNA:RNA)
RNA: B19 RNA with U26G, A29C, C30A, U31A
DNA 1: CAATCTGAATTCCGGTCTCCC
DNA 2: TGGTGGCTACGACGGGATT
B27: GCCCCUA (DNA:RNA)
RNA: B10 RNA with A25G, A26C, A27C, U28C, U29C
DNA 1: CAATCTGAATTCCGGTCTCCC
DNA 2: TGGTGGCTACGACGGGATT
B28: CAAUAUC (DNA:RNA)
RNA: B10 RNA with A25C, U29A, A31C
DNA 1: CAATCTGAATTCCGGTCTCCC
DNA 2: TGGTGGCTACGACGGGATT
B29: UAGUUAG (DNA:RNA)
RNA: B10 RNA with A25U, A27G, U30A, A31G
DNA 1: CAATCTGAATTCCGGTCTCCC
DNA 2: TGGTGGCTACGACGGGATT
B30: UGCACAC (DNA:RNA)
RNA: B1 RNA with G27C, C28A, G30A
DNA 1: CAATCTGAATTCCGGTCTCCC
DNA 2: TGGTGGCTACGACGGGATT
B31: GAGAUCA (DNA:RNA)
RNA: B10 RNA with A25G, A27G, U28A, U30C
DNA 1: CAATCTGAATTCCGGTCTCCC
DNA 2: TGGTGGCTACGACGGGATT

Biological target: T1, RBFOX1 RRM
Test: EMSA; HiTS-Eq, 1 nM pool, 10 min; buffer printed only for the single-RNA assays: 10 mM Tris pH 7.5, 150 mM NaCl, 3.4 mM EDTA, 0.001% NP-40, 30 C
Conditions: tags: His6 N-terminal (pET28a); label: 5' 32P
Method in brief: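 A pool of RNA with 7 randomized nucleotides, 5′-radiolabelled and with DNA-annealed flanks, was equilibrated at 1 nM for 10 min in 50 µL with purified RbFox RRM, wild type or mutant, across increasing protein concentrations. Free RNA was separated by 8% native PAGE, excised, reverse-transcribed, barcoded by PCR and sequenced. Relative association constants were obtained from read-count changes of each RNA species versus the control reaction and normalised to the cognate motif.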

Binder	binding signal
B1	0.0225 KA relative to UGCAUGU
B2	0.0217 KA relative to UGCAUGU
B3	0.00632 KA relative to UGCAUGU
B4	0.0205 KA relative to UGCAUGU
B5	0.0097 KA relative to UGCAUGU
B6	0.0144 KA relative to UGCAUGU
B7	0.0162 KA relative to UGCAUGU
B8	0.00307 KA relative to UGCAUGU
B9	0.00762 KA relative to UGCAUGU
B10	0.00154 KA relative to UGCAUGU
B11	0.0137 KA relative to UGCAUGU
B12	0.002 KA relative to UGCAUGU
B13	0.00419 KA relative to UGCAUGU
B14	0.00275 KA relative to UGCAUGU
B15	0.0062 KA relative to UGCAUGU
B16	0.00277 KA relative to UGCAUGU

Binder	binding signal
B17	0.00626 KA relative to UGCAUGU
B18	0.0195 KA relative to UGCAUGU
B19	0.00584 KA relative to UGCAUGU
B20	0.0108 KA relative to UGCAUGU
B21	0.0226 KA relative to UGCAUGU
B22	0.0103 KA relative to UGCAUGU
B23	0.00569 KA relative to UGCAUGU
B24	0.00624 KA relative to UGCAUGU
B25	0.0187 KA relative to UGCAUGU
B26	0.0078 KA relative to UGCAUGU
B27	0.00549 KA relative to UGCAUGU
B28	0.000371 KA relative to UGCAUGU
B29	0.0161 KA relative to UGCAUGU
B30	0.0137 KA relative to UGCAUGU
B31	0.00685 KA relative to UGCAUGU
